Results published in PubChem BioAssay AID485360 (National Center for Advancing Translational Sciences (NCATS), 2010).
Among all 230,000 compounds or so, about 1,500 (0.65%) were called active. Inconclusive means that the source gave no clear call. Such entries were picked first, then a sample of the others. Calls follow the shape of the dose curve; as a rule, active = well fitted inhibition curve with a large enough effect; inconclusive = small, poorly fitted or top-dose-only effect; inactive = no such curve, though single readings can be large or run the other way. Potencies beside an inconclusive call are fits to weak or partial responses and may not hold up.

Biological target: Lethal(3)malignant brain tumor-like protein 1 (Homo sapiens) (UniProt Q9Y468)
Sequence of UniProt Q9Y468 (Q9Y468 whole entry, looked up): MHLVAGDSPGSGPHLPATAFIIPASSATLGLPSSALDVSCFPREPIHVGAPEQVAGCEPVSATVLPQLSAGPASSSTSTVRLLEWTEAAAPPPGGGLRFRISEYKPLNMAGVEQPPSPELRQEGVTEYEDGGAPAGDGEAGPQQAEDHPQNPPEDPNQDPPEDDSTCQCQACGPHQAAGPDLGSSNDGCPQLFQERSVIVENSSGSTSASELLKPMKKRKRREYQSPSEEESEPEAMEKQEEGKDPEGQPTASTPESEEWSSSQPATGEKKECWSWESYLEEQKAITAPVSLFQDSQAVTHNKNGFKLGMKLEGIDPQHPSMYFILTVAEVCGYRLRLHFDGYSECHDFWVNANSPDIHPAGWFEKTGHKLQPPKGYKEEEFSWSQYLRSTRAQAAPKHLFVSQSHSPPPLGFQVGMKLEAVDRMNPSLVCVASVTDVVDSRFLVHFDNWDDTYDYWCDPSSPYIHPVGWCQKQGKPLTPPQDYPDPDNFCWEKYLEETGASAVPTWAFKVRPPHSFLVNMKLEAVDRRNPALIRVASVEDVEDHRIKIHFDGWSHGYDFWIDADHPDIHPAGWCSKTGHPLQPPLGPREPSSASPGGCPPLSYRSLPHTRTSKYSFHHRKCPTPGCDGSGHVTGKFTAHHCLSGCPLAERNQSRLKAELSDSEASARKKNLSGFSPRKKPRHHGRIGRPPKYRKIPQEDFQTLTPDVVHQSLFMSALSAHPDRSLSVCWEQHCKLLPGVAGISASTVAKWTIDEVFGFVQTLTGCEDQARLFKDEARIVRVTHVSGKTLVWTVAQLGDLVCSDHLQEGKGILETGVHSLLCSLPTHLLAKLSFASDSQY
Test: qHTS Assay for the Inhibitors of L3MBTL1; also: nearly all actives have a fitted effect of over 60% in size
Conditions: AlphaScreen L3MBTL1–H3K9me1 peptide binding; activity, negative = inhibition: at 57.1 µM (top of the series)
Summary of the method: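 L3MBTL1 50 nM + b-AHA-H3(1-15)K9me1 75 nM, 30 min RT; compound added, 30 min RT; streptavidin donor/Ni-chelate acceptor beads 10 ug/mL each final, 30 min RT dark; AlphaScreen read.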
% is scaled to controls: 0 for no effect and ±100 for the full control effect; potency is read from the fitted curve at half-maximal effect; tags tell the direction and shape of the fitted curve.

**Q.** With `CC1CCCC(NC(=O)COC(=O)[C@@H](NC(=O)c2ccco2)C(C)C)C1C` (stereo not given in full) as the compound, how does the Potency read?
**A.** Its Potency is inconclusive: 1.78 µM [inhibitor, full curve, poor fit].

**Q.** Which Potency does the source give for `Cc1ccc(/C=N/N2CCN(Cc3ccc(C)cc3)CC2)cc1` here?
**A.** The Potency was inconclusive: 17.8 µM [inhibitor, partial curve].

**Q.** Which Potency does the source give for `COc1ccc(N=C/C=C2\C=C(c3ccccc3)OC(C)(C)O2)cc1` here?
**A.** The Potency was inconclusive: 28.2 µM [inhibitor, single point].

**Q.** For `CCOc1cc(/C=C2/C(=O)N(c3ccccc3)N=C2C)ccc1OC(=O)c1cccs1`, which Potency is on record?
**A.** Its Potency is inconclusive: 39.8 µM [inhibitor, single point].

**Q.** With `Cc1cc2ccccn2c1C(=O)c1cc([N+](=O)[O-])cc([N+](=O)[O-])c1` as the compound, how does the Potency read?
**A.** Its Potency is inconclusive: 5.01 µM [inhibitor, partial curve].

**Q.** With `COc1ccc(N2CCN(c3oc(-c4ccco4)nc3C#N)CC2)cc1` as the compound, how does the Potency read?
**A.** The Potency was inconclusive: 31.6 µM [inhibitor, partial curve].

**Q.** How did the Potency turn out when `COCCN(C(=O)COC(=O)Cc1coc2cc3c(cc12)CCC3)c1c(N)n(Cc2ccccc2)c(=O)[nH]c1=O` was run?
**A.** The Potency was inconclusive: 39.8 µM [inhibitor, single point].

**Q.** Which “activity, negative = inhibition” value does the source give for `Cc1nnc(SCC(=O)Nc2nnc(SCc3cccc(Br)c3)s2)s1` here?
**A.** The value was inactive: -7.38%.

**Q.** Which Potency does the source give for `Cc1nnsc1C(=O)N/N=C/c1ccc2ccccc2c1O` here?
**A.** Its Potency is active: 2 µM.

**Q.** For `CCCCN(Cc1ccccc1)C(=O)CCN1C(=O)C2C3C=CC(C3)C2C1=O` (stereo not given), which Potency is on record?
**A.** The Potency was inconclusive: 0.1 µM [inhibitor, full curve, poor fit].

**Q.** How did the Potency turn out when `Nc1c(Cl)ncnc1N/N=C/c1ccc2ccccc2n1` was run?
**A.** The Potency was inconclusive: 39.8 µM [inhibitor, single point].

**Q.** Which Potency does the source give for `O=C(O)CCC(=O)N1N=C(c2cccs2)CC1c1cccc([N+](=O)[O-])c1` (stereo not given) here?
**A.** The Potency was inconclusive: 5.01 µM [inhibitor, single point].

**Q.** How did the Potency turn out when `COc1ccc(-c2cc(C(F)(F)F)nc(SCC(=O)Nc3cc(C)on3)n2)cc1` was run?
**A.** Its Potency is inconclusive: 5.62 µM [inhibitor, single point].

**Q.** `CCOc1cc(CNc2ccc3c(c2)OCCO3)cc(Br)c1OCC` was tested. Which Potency did it give?
**A.** The Potency was inconclusive: 28.2 µM [inhibitor, single point].

**Q.** With `CCN(CC)c1ccc(/C=C2\C(=O)N(c3nnc(C)c(=O)[nH]3)N=C2C)cc1` as the compound, how does the Potency read?
**A.** The Potency was inconclusive: 3.16 µM [inhibitor, full curve, poor fit].

**Q.** For `CCOC(=O)c1c2c(c(=S)n(-c3ccccc3)c1N)CCC2`, which Potency is on record?
**A.** Its Potency is inconclusive: 39.8 µM [inhibitor, single point].

**Q.** `O=C(N/N=C/c1ccccn1)c1sc2ccccc2c1Cl` was tested. Which Potency did it give?
**A.** Its Potency is inconclusive: 25.1 µM [inhibitor, single point].

**Q.** Which Potency does the source give for `CCN(C(=O)c1cn(C)c(=O)c2cc(OC)c(OC)cc12)c1ccccc1C` here?
**A.** Its Potency is inconclusive: 39.8 µM [inhibitor, single point].

**Q.** With `Cc1cc(-c2ccccc2)n[nH]1` as the compound, how does the Potency read?
**A.** Its Potency is inconclusive: 3.98 µM [inhibitor, single point].

**Q.** How did the Potency turn out when `Cc1cc(C)c(NC(=O)Cc2ccc(-n3cccc3)cc2)c(C)c1` was run?
**A.** Its Potency is inconclusive: 31.6 µM [inhibitor, partial curve].

**Q.** Which activity, negative = inhibition does the source give for `CSCCC(=O)N1CCCC(N2CCN(c3cccc(C(F)(F)F)c3)CC2)C1` (stereo not given) here?
**A.** The activity, negative = inhibition was inconclusive: -92.8% [inhibitor].

**Q.** `COc1ccc(-n2c(O)c(C=NCC(c3ccco3)N3CCCC3)c3ccccc3c2=O)cc1OC` (stereo not given) was tested. Which Potency did it give?
**A.** Its Potency is inconclusive: 39.8 µM [inhibitor, single point].

**Q.** `CC(=O)C1=NN(c2ccccc2)C(c2ccc3c(c2)OCO3)N1c1ccc(N2CCOCC2)cc1` (stereo not given) was tested. Which Potency did it give?
**A.** The Potency was inconclusive: 31.6 µM [inhibitor, partial curve].

**Q.** With `CCN(C[C@H]1N[C@@](C)(C(=O)OC)[C@H]2C(=O)N(C)C(=O)[C@@H]12)C(=O)COC` as the compound, how does the Potency read?
**A.** The Potency was inconclusive: 39.8 µM [inhibitor, single point].

**Q.** How did the “activity, negative = inhibition” value turn out when `O=C(N/N=C/C=C/c1ccccc1[N+](=O)[O-])c1cc(-c2ccccc2)n[nH]1` was run?
**A.** Its value is inactive: -14.5%.

**Q.** Which Potency does the source give for `COc1ccc(CN2C3CCCC2CC(NC(=O)Nc2cccc(C)c2)C3)cc1` (stereo not given) here?
**A.** Its Potency is inconclusive: 6.31 µM [inhibitor, single point].

**Q.** Which Potency does the source give for `COc1ccc2nc(C)cc(SCC(=O)OC(C)C)c2c1` here?
**A.** Its Potency is inconclusive: 39.8 µM [inhibitor, single point].

**Q.** Which “activity, negative = inhibition” value does the source give for `Cc1cccc(C)c1NC(=O)CN1CCN(C(=O)c2ccc(OCc3cn4ccccc4n3)cc2)CC1` here?
**A.** Its value is inactive: -11.2%.

**Q.** `CCC(=O)N/N=C/c1ccc(-c2ccc(Cl)cc2)o1` was tested. Which Potency did it give?
**A.** The Potency was inconclusive: 28.2 µM [inhibitor, single point].

**Q.** How did the Potency turn out when `O=C(Nc1nccs1)C1(c2ccc(Cl)cc2)CC1` was run?
**A.** The Potency was inconclusive: 0.316 µM [inhibitor, full curve, poor fit].

**Q.** How did the Potency turn out when `COc1cccc(C2=CC(c3cccc(OC)c3OC)n3nnnc3N2)c1` (stereo not given) was run?
**A.** Its Potency is inconclusive: 5.62 µM [inhibitor, single point].

**Q.** With `CN(C)c1ccc(N2C(=O)CSC2=S)cc1` as the compound, how does the Potency read?
**A.** The Potency was inconclusive: 8.91 µM [inhibitor, partial curve].

**Q.** For `COc1ccc(C2CC(c3cccs3)n3nc(N)nc3N2)cc1` (stereo not given), which Potency is on record?
**A.** The Potency was inconclusive: 3.55 µM [inhibitor, full curve, poor fit].

**Q.** With `CC1(C)Cc2c(C#N)c(SCc3nc4ccccc4[nH]3)nc(N3CCOCC3)c2CO1` as the compound, how does the “activity, negative = inhibition” value read?
**A.** Its value is inactive: 2.75%.

**Q.** Which Potency does the source give for `S=C(c1ccc(N2CCCC2)cc1)N1CCCCC1` here?
**A.** Its Potency is inconclusive: 28.2 µM [inhibitor, single point].

**Q.** How did the Potency turn out when `O=C(N/N=C/c1ccc[nH]1)c1sc2ccccc2c1Cl` was run?
**A.** Its Potency is inconclusive: 35.5 µM [inhibitor, partial curve].

**Q.** For `O=C(COC(=O)c1ccc([N+](=O)[O-])o1)Nc1ccc2c(c1)OCO2`, which Potency is on record?
**A.** The Potency was inconclusive: 39.8 µM [inhibitor, single point].

**Q.** `Cc1cc(C2(c3ccc(O)c(C)c3)OC(=O)c3ccccc32)ccc1O` was tested. Which Potency did it give?
**A.** The Potency was inconclusive: 39.8 µM [inhibitor, single point].

**Q.** Which “activity, negative = inhibition” value does the source give for `O=C(NCCN1CCOCC1)c1ccc([N+](=O)[O-])cc1[N+](=O)[O-]` here?
**A.** Its value is inactive: 12.4%.

**Q.** Which Potency does the source give for `Oc1ccc2ccccc2c1C=Nc1cc(C(F)(F)F)ccc1N1CCCC1` here?
**A.** Its Potency is inconclusive: 39.8 µM [inhibitor, single point].
